Source: the supplement of paper PMC8728848
This is one part of the list.

What was measured:
Test in all cases: glycan array binding signal (z-score within array); higher = stronger binding
Conditions in all cases: glycan notation: IUPAC condensed, linker removed
[1] = molecular target: Gal(b1-3)GlcNAc(b1-6)GalNAc
Method in brief: (§1)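 From the Consortium for Functional Glycomics database, 3228 arrays were curated, keeping only those whose protein sequence was available. Binding is given as a within-array Z-score averaged across arrays sharing a protein sequence and across linkers. Negative Z-scores can be read as non-binding.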

[2] = molecular target: Gal(b1-3)GlcNAc(b1-6)[Gal(b1-3)]GalNAc
Method in brief: as §1

Gal(b1-3)GlcNAc6S = molecular target: Gal(b1-3)GlcNAc6S
Method in brief: as §1

[3] = molecular target: Gal(b1-3)[Fuc(a1-4)]GlcNAc
Method in brief: as §1

[4] = molecular target: Gal(b1-3)[Fuc(a1-4)]GlcNAc(b1-2)Man
Method in brief: as §1

[5] = molecular target: Gal(b1-3)[Fuc(a1-4)]GlcNAc(b1-2)Man(a1-3)[Gal(b1-3)[Fuc(a1-4)]GlcNAc(b1-2)Man(a1-6)]Man(b1-4)GlcNAc(b1-4)[Fuc(a1-6)]GlcNAc
Method in brief: as §1

[6] = molecular target: Gal(b1-3)[Fuc(a1-4)]GlcNAc(b1-3)Gal(b1-3)[Fuc(a1-4)]GlcNAc
Method in brief: as §1

[7] = molecular target: Gal(b1-3)[Fuc(a1-4)]GlcNAc(b1-3)Gal(b1-4)[Fuc(a1-3)]GlcNAc
Method in brief: as §1

[8] = molecular target: Gal(b1-3)[Fuc(a1-4)]GlcNAc(b1-6)GalNAc
Method in brief: as §1

[9] = molecular target: Gal(b1-3)[GlcNAc(b1-6)]GalNAc
Method in brief: as §1

[10] = molecular target: Gal(b1-3)[Neu5Ac(a2-6)]GalNAc
Method in brief: as §1

[11] = molecular target: Gal(b1-3)[Neu5Ac(a2-6)]GlcNAc(b1-4)Gal(b1-4)Glc
Method in brief: as §1

[12] = molecular target: Gal(b1-3)[Neu5Ac(b2-6)]GalNAc
Method in brief: as §1

Gal(b1-4)Gal = molecular target: Gal(b1-4)Gal
Method in brief: as §1

[13] = molecular target: Gal(b1-4)GalNAc(a1-3)[Fuc(a1-2)]Gal(b1-4)GlcNAc
Method in brief: as §1

[14] = molecular target: Gal(b1-4)GalNAc(b1-3)[Fuc(a1-2)]Gal(b1-4)GlcNAc
Method in brief: as §1

Gal(b1-4)Glc = molecular target: Gal(b1-4)Glc
Method in brief: as §1

Gal(b1-4)Glc6S = molecular target: Gal(b1-4)Glc6S
Method in brief: as §1

Gal(b1-4)GlcNAc = molecular target: Gal(b1-4)GlcNAc
Method in brief: as §1

[15] = molecular target: Gal(b1-4)GlcNAc(a1-6)Gal(b1-4)GlcNAc
Method in brief: as §1

Gal(b1-4)GlcNAc(b1-2)Man = molecular target: Gal(b1-4)GlcNAc(b1-2)Man
Method in brief: as §1

[16] = molecular target: Gal(b1-4)GlcNAc(b1-2)Man(a1-3)Man(b1-4)GlcNAc(b1-4)GlcNAc
Method in brief: as §1

[17] = molecular target: Gal(b1-4)GlcNAc(b1-2)Man(a1-3)[Gal(b1-4)GlcNAc(b1-2)Man(a1-6)]Man(b1-4)GlcNAc(b1-4)GlcNAc
Method in brief: as §1

[18] = molecular target: Gal(b1-4)GlcNAc(b1-2)Man(a1-3)[Gal(b1-4)GlcNAc(b1-2)Man(a1-6)]Man(b1-4)GlcNAc(b1-4)[Fuc(a1-6)]GlcNAc
Method in brief: as §1

[19] = molecular target: Gal(b1-4)GlcNAc(b1-2)Man(a1-3)[Gal(b1-4)GlcNAc(b1-2)Man(a1-6)][Gal(b1-4)GlcNAc(b1-4)]Man(b1-4)GlcNAc(b1-4)[Fuc(a1-6)]GlcNAc
Method in brief: as §1

[20] = molecular target: Gal(b1-4)GlcNAc(b1-2)Man(a1-3)[Gal(b1-4)GlcNAc(b1-2)Man(a1-6)][GlcNAc(b1-4)]Man(b1-4)GlcNAc(b1-4)[Fuc(a1-6)]GlcNAc
Method in brief: as §1

[21] = molecular target: Gal(b1-4)GlcNAc(b1-2)Man(a1-3)[GlcNAc(b1-2)Man(a1-6)]Man(b1-4)GlcNAc(b1-4)GlcNAc
Method in brief: as §1

[22] = molecular target: Gal(b1-4)GlcNAc(b1-2)Man(a1-3)[GlcNAc(b1-4)][Gal(b1-4)GlcNAc(b1-2)Man(a1-6)]Man(b1-4)GlcNAc(b1-4)GlcNAc
Method in brief: as §1

[23] = molecular target: Gal(b1-4)GlcNAc(b1-2)Man(a1-3)[Man(a1-6)]Man(b1-4)GlcNAc(b1-4)GlcNAc
Method in brief: as §1

[24] = molecular target: Gal(b1-4)GlcNAc(b1-2)Man(a1-6)Man(b1-4)GlcNAc(b1-4)GlcNAc
Method in brief: as §1

[25] = molecular target: Gal(b1-4)GlcNAc(b1-2)Man(a1-6)[GlcNAc(b1-2)Man(a1-3)]Man(b1-4)GlcNAc(b1-4)GlcNAc
Method in brief: as §1

[26] = molecular target: Gal(b1-4)GlcNAc(b1-2)Man(a1-6)[Man(a1-3)]Man(b1-4)GlcNAc(b1-4)GlcNAc
Method in brief: as §1

[27] = molecular target: Gal(b1-4)GlcNAc(b1-2)[Gal(b1-4)GlcNAc(b1-4)]Man(a1-3)[Gal(b1-4)GlcNAc(b1-2)Man(a1-6)]Man(b1-4)GlcNAc(b1-4)GlcNAc
Method in brief: as §1

[28] = molecular target: Gal(b1-4)GlcNAc(b1-2)[Gal(b1-4)GlcNAc(b1-4)]Man(a1-3)[Gal(b1-4)GlcNAc(b1-2)[Gal(b1-4)GlcNAc(b1-6)]Man(a1-6)]Man(b1-4)GlcNAc(b1-4)GlcNAc
Method in brief: as §1

[29] = molecular target: Gal(b1-4)GlcNAc(b1-2)[Gal(b1-4)GlcNAc(b1-4)]Man(a1-3)[GlcNAc(b1-4)][Gal(b1-4)GlcNAc(b1-2)Man(a1-6)]Man(b1-4)GlcNAc(b1-4)GlcNAc
Method in brief: as §1

[30] = molecular target: Gal(b1-4)GlcNAc(b1-2)[Gal(b1-4)GlcNAc(b1-4)]Man(a1-3)[GlcNAc(b1-4)][Gal(b1-4)GlcNAc(b1-2)[Gal(b1-4)GlcNAc(b1-6)]Man(a1-6)]Man(b1-4)GlcNAc(b1-4)GlcNAc
Method in brief: as §1

[31] = molecular target: Gal(b1-4)GlcNAc(b1-2)[Gal(b1-4)GlcNAc(b1-6)]Man(a1-6)[Gal(b1-4)GlcNAc(b1-2)Man(a1-3)]Man(b1-4)GlcNAc(b1-4)GlcNAc
Method in brief: as §1

[32] = molecular target: Gal(b1-4)GlcNAc(b1-2)[Gal(b1-4)GlcNAc(b1-6)]Man(a1-6)[Gal(b1-4)GlcNAc(b1-2)Man(a1-3)]Man(b1-4)GlcNAc(b1-4)[Fuc(a1-6)]GlcNAc
Method in brief: as §1

[33] = molecular target: Gal(b1-4)GlcNAc(b1-2)[Gal(b1-4)GlcNAc(b1-6)]Man(a1-6)[GlcNAc(b1-4)][Gal(b1-4)GlcNAc(b1-2)Man(a1-3)]Man(b1-4)GlcNAc(b1-4)GlcNAc
Method in brief: as §1

[34] = molecular target: Gal(b1-4)GlcNAc(b1-2)[Gal(b1-4)GlcNAc(b1-6)]Man(a1-6)[GlcNAc(b1-4)][Gal(b1-4)GlcNAc(b1-2)[Gal(b1-4)GlcNAc(b1-4)]Man(a1-3)]Man(b1-4)GlcNAc(b1-4)[Fuc(a1-6)]GlcNAc
Method in brief: as §1

[35] = molecular target: Gal(b1-4)GlcNAc(b1-3)Gal(b1-3)GalNAc
Method in brief: as §1

[36] = molecular target: Gal(b1-4)GlcNAc(b1-3)Gal(b1-3)GlcNAc
Method in brief: as §1

[37] = molecular target: Gal(b1-4)GlcNAc(b1-3)Gal(b1-4)Glc
Method in brief: as §1

[38] = molecular target: Gal(b1-4)GlcNAc(b1-3)Gal(b1-4)GlcNAc
Method in brief: as §1

[39] = molecular target: Gal(b1-4)GlcNAc(b1-3)Gal(b1-4)GlcNAc(b1-2)Man(a1-3)[Gal(b1-4)GlcNAc(b1-3)Gal(b1-4)GlcNAc(b1-2)Man(a1-6)]Man(b1-4)GlcNAc(b1-4)GlcNAc
Method in brief: as §1

B1: PFL (Pseudomonas fluorescens) (protein)
chain: MSKYAVANQWGGSSAPWHPGGTWVLGARDNQNVVAIEIKSGDGGKSFTGTMTYAGEGPIGFKAQRTGQNQYNVENQWGGNDAPWHPGGKWVIGGRDNQNVIALSVTSSDGGKNLSGTNTYANEGPIGFRGQIE
glycan array binding signal (z-score) [1]: -0.117 | glycan array binding signal (z-score) [2]: -0.093 | glycan array binding signal (z-score) (Gal(b1-3)GlcNAc6S): -0.115 | glycan array binding signal (z-score) [3]: -0.113 | glycan array binding signal (z-score) [4]: -0.112 | glycan array binding signal (z-score) [5]: 0.665 | glycan array binding signal (z-score) [6]: -0.096 | glycan array binding signal (z-score) [7]: -0.115 | glycan array binding signal (z-score) [8]: -0.107 | glycan array binding signal (z-score) [9]: -0.118 | glycan array binding signal (z-score) [10]: -0.116 | glycan array binding signal (z-score) [11]: -0.117 | glycan array binding signal (z-score) [12]: -0.117 | glycan array binding signal (z-score) (Gal(b1-4)Gal): -0.112 | glycan array binding signal (z-score) [13]: -0.114 | glycan array binding signal (z-score) [14]: -0.115 | glycan array binding signal (z-score) (Gal(b1-4)Glc): -0.116 | glycan array binding signal (z-score) (Gal(b1-4)Glc6S): -0.113 | glycan array binding signal (z-score) (Gal(b1-4)GlcNAc): -0.112 | glycan array binding signal (z-score) [15]: -0.116 | glycan array binding signal (z-score) (Gal(b1-4)GlcNAc(b1-2)Man): -0.108 | glycan array binding signal (z-score) [16]: -0.114 | glycan array binding signal (z-score) [17]: -0.113 | glycan array binding signal (z-score) [18]: 0.032 | glycan array binding signal (z-score) [19]: -0.103 | glycan array binding signal (z-score) [20]: -0.119 | glycan array binding signal (z-score) [21]: 0.149 | glycan array binding signal (z-score) [22]: -0.117 | glycan array binding signal (z-score) [23]: -0.114 | glycan array binding signal (z-score) [24]: -0.112 | glycan array binding signal (z-score) [25]: -0.113 | glycan array binding signal (z-score) [26]: -0.112 | glycan array binding signal (z-score) [27]: -0.036 | glycan array binding signal (z-score) [28]: 0.988 | glycan array binding signal (z-score) [29]: -0.117 | glycan array binding signal (z-score) [30]: -0.117 | glycan array binding signal (z-score) [31]: -0.059 | glycan array binding signal (z-score) [32]: -0.111 | glycan array binding signal (z-score) [33]: -0.115 | glycan array binding signal (z-score) [34]: -0.114 | glycan array binding signal (z-score) [35]: -0.116 | glycan array binding signal (z-score) [36]: -0.116 | glycan array binding signal (z-score) [37]: -0.113 | glycan array binding signal (z-score) [38]: -0.12 | glycan array binding signal (z-score) [39]: -0.104
